# Assay results published in the supplement of paper PMC8728848.
# This is one part of the list.
# B1: SRA-1 (Homo sapiens), P21757 (protein)
# chain: MEQWDHFHNQQEDTDSCSESVKFDARSMTALLPPNPKNSPSLQEKLKSFKAALIALYLLVFAVLIPLIGIVAAQLLKWETKNCSVSSTNANDITQSLTGKGNDSEEEMRFQEVFMEHMSNMEKRIQHILDMEANLMDTEHFQNFSMTTDQRFNDILLQLSTLFSSVQGHGNAIDEISKSLISLNTTLLDLQLNIENLNGKIQENTFKQQEEISKLEERVYNVSAEIMAMKEEQVHLEQEIKGEVKVLNNITNDLRLKDWEHSQTLRNITLIQGPPGPPGEKGDRGPTGESGPRGFPGPIGPPGLKGDRGAIGFPGSRGLPGYAGRPGNSGPKGQKGEKGSGNTLTPFTKVRLVGGSGPHEGRVEILHSGQWGTICDDRWEVRVGQVVCRSLGYPGVQAVHKAAHFGQGTGPIWLNEVFCFGRESSIEECKIRQWGTRACSHSEDAGVTCTL
# Key:
# Experiment in all cases: glycan array binding signal (z-score within array); higher = stronger binding
# Settings in all cases: glycan notation: IUPAC condensed, linker removed
# [1] = biological target: Gal(b1-4)GalNAc(b1-3)[Fuc(a1-2)]Gal(b1-4)GlcNAc
# Method in brief: (§1)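 Glycan array binding is given as a within-array Z-score, which can be read as non-binding when negative. The arrays, 3228 of them, came from the Consortium for Functional Glycomics database and were retained only where the protein sequence was available. Z-scores were averaged across arrays of the same protein sequence at different concentrations or buffers and across linkers.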
# [2] = biological target: Gal(b1-4)Glc
# Method in brief: as §1
# [3] = biological target: Gal(b1-4)Glc6S
# Method in brief: as §1
# [4] = biological target: Gal(b1-4)GlcNAc
# Method in brief: as §1
# [5] = biological target: Gal(b1-4)GlcNAc(a1-6)Gal(b1-4)GlcNAc
# Method in brief: as §1
# [6] = biological target: Gal(b1-4)GlcNAc(b1-2)Man
# Method in brief: as §1
# [7] = biological target: Gal(b1-4)GlcNAc(b1-2)Man(a1-3)Man(b1-4)GlcNAc(b1-4)GlcNAc
# Method in brief: as §1
# [8] = biological target: Gal(b1-4)GlcNAc(b1-2)Man(a1-3)[Gal(b1-4)GlcNAc(b1-2)Man(a1-6)]Man(b1-4)GlcNAc(b1-4)GlcNAc
# Method in brief: as §1
# [9] = biological target: Gal(b1-4)GlcNAc(b1-2)Man(a1-3)[Gal(b1-4)GlcNAc(b1-2)Man(a1-6)]Man(b1-4)GlcNAc(b1-4)[Fuc(a1-6)]GlcNAc
# Method in brief: as §1
# [10] = biological target: Gal(b1-4)GlcNAc(b1-2)Man(a1-3)[Gal(b1-4)GlcNAc(b1-2)Man(a1-6)][Gal(b1-4)GlcNAc(b1-4)]Man(b1-4)GlcNAc(b1-4)[Fuc(a1-6)]GlcNAc
# Method in brief: as §1
# [11] = biological target: Gal(b1-4)GlcNAc(b1-2)Man(a1-3)[Gal(b1-4)GlcNAc(b1-2)Man(a1-6)][GlcNAc(b1-4)]Man(b1-4)GlcNAc(b1-4)[Fuc(a1-6)]GlcNAc
# Method in brief: as §1
# [12] = biological target: Gal(b1-4)GlcNAc(b1-2)Man(a1-3)[GlcNAc(b1-2)Man(a1-6)]Man(b1-4)GlcNAc(b1-4)GlcNAc
# Method in brief: as §1
# [13] = biological target: Gal(b1-4)GlcNAc(b1-2)Man(a1-3)[GlcNAc(b1-4)][Gal(b1-4)GlcNAc(b1-2)Man(a1-6)]Man(b1-4)GlcNAc(b1-4)GlcNAc
# Method in brief: as §1
# [14] = biological target: Gal(b1-4)GlcNAc(b1-2)Man(a1-3)[Man(a1-6)]Man(b1-4)GlcNAc(b1-4)GlcNAc
# Method in brief: as §1
# [15] = biological target: Gal(b1-4)GlcNAc(b1-2)Man(a1-6)Man(b1-4)GlcNAc(b1-4)GlcNAc
# Method in brief: as §1
# [16] = biological target: Gal(b1-4)GlcNAc(b1-2)Man(a1-6)[GlcNAc(b1-2)Man(a1-3)]Man(b1-4)GlcNAc(b1-4)GlcNAc
# Method in brief: as §1
# [17] = biological target: Gal(b1-4)GlcNAc(b1-2)Man(a1-6)[Man(a1-3)]Man(b1-4)GlcNAc(b1-4)GlcNAc
# Method in brief: as §1
# [18] = biological target: Gal(b1-4)GlcNAc(b1-2)[Gal(b1-4)GlcNAc(b1-4)]Man(a1-3)[Gal(b1-4)GlcNAc(b1-2)Man(a1-6)]Man(b1-4)GlcNAc(b1-4)GlcNAc
# Method in brief: as §1
# [19] = biological target: Gal(b1-4)GlcNAc(b1-2)[Gal(b1-4)GlcNAc(b1-4)]Man(a1-3)[Gal(b1-4)GlcNAc(b1-2)[Gal(b1-4)GlcNAc(b1-6)]Man(a1-6)]Man(b1-4)GlcNAc(b1-4)GlcNAc
# Method in brief: as §1
# [20] = biological target: Gal(b1-4)GlcNAc(b1-2)[Gal(b1-4)GlcNAc(b1-4)]Man(a1-3)[GlcNAc(b1-4)][Gal(b1-4)GlcNAc(b1-2)Man(a1-6)]Man(b1-4)GlcNAc(b1-4)GlcNAc
# Method in brief: as §1
# [21] = biological target: Gal(b1-4)GlcNAc(b1-2)[Gal(b1-4)GlcNAc(b1-4)]Man(a1-3)[GlcNAc(b1-4)][Gal(b1-4)GlcNAc(b1-2)[Gal(b1-4)GlcNAc(b1-6)]Man(a1-6)]Man(b1-4)GlcNAc(b1-4)GlcNAc
# Method in brief: as §1
# [22] = biological target: Gal(b1-4)GlcNAc(b1-2)[Gal(b1-4)GlcNAc(b1-6)]Man(a1-6)[Gal(b1-4)GlcNAc(b1-2)Man(a1-3)]Man(b1-4)GlcNAc(b1-4)GlcNAc
# Method in brief: as §1
# [23] = biological target: Gal(b1-4)GlcNAc(b1-2)[Gal(b1-4)GlcNAc(b1-6)]Man(a1-6)[Gal(b1-4)GlcNAc(b1-2)Man(a1-3)]Man(b1-4)GlcNAc(b1-4)[Fuc(a1-6)]GlcNAc
# Method in brief: as §1
# [24] = biological target: Gal(b1-4)GlcNAc(b1-2)[Gal(b1-4)GlcNAc(b1-6)]Man(a1-6)[GlcNAc(b1-4)][Gal(b1-4)GlcNAc(b1-2)Man(a1-3)]Man(b1-4)GlcNAc(b1-4)GlcNAc
# Method in brief: as §1
# [25] = biological target: Gal(b1-4)GlcNAc(b1-2)[Gal(b1-4)GlcNAc(b1-6)]Man(a1-6)[GlcNAc(b1-4)][Gal(b1-4)GlcNAc(b1-2)[Gal(b1-4)GlcNAc(b1-4)]Man(a1-3)]Man(b1-4)GlcNAc(b1-4)[Fuc(a1-6)]GlcNAc
# Method in brief: as §1
# [26] = biological target: Gal(b1-4)GlcNAc(b1-3)Gal(b1-3)GalNAc
# Method in brief: as §1
# [27] = biological target: Gal(b1-4)GlcNAc(b1-3)Gal(b1-3)GlcNAc
# Method in brief: as §1
# [28] = biological target: Gal(b1-4)GlcNAc(b1-3)Gal(b1-4)Glc
# Method in brief: as §1
# [29] = biological target: Gal(b1-4)GlcNAc(b1-3)Gal(b1-4)GlcNAc
# Method in brief: as §1
# [30] = biological target: Gal(b1-4)GlcNAc(b1-3)Gal(b1-4)GlcNAc(b1-2)Man(a1-3)[Gal(b1-4)GlcNAc(b1-3)Gal(b1-4)GlcNAc(b1-2)Man(a1-6)]Man(b1-4)GlcNAc(b1-4)GlcNAc
# Method in brief: as §1
# [31] = biological target: Gal(b1-4)GlcNAc(b1-3)Gal(b1-4)GlcNAc(b1-2)Man(a1-3)[Gal(b1-4)GlcNAc(b1-3)Gal(b1-4)GlcNAc(b1-2)Man(a1-6)]Man(b1-4)GlcNAc(b1-4)[Fuc(a1-6)]GlcNAc
# Method in brief: as §1
# [32] = biological target: Gal(b1-4)GlcNAc(b1-3)Gal(b1-4)GlcNAc(b1-2)[Gal(b1-4)GlcNAc(b1-3)Gal(b1-4)GlcNAc(b1-6)]Man(a1-6)[Gal(b1-4)GlcNAc(b1-3)Gal(b1-4)GlcNAc(b1-2)Man(a1-3)]Man(b1-4)GlcNAc(b1-4)GlcNAc
# Method in brief: as §1
# [33] = biological target: Gal(b1-4)GlcNAc(b1-3)Gal(b1-4)GlcNAc(b1-2)[Gal(b1-4)GlcNAc(b1-3)Gal(b1-4)GlcNAc(b1-6)]Man(a1-6)[Gal(b1-4)GlcNAc(b1-3)Gal(b1-4)GlcNAc(b1-2)Man(a1-3)]Man(b1-4)GlcNAc(b1-4)[Fuc(a1-6)]GlcNAc
# Method in brief: as §1
# [34] = biological target: Gal(b1-4)GlcNAc(b1-3)Gal(b1-4)GlcNAc(b1-3)Gal(b1-4)GlcNAc
# Method in brief: as §1
# [35] = biological target: Gal(b1-4)GlcNAc(b1-3)Gal(b1-4)GlcNAc(b1-3)Gal(b1-4)GlcNAc(b1-2)Man(a1-3)[Gal(b1-4)GlcNAc(b1-3)Gal(b1-4)GlcNAc(b1-3)Gal(b1-4)GlcNAc(b1-2)Man(a1-6)]Man(b1-4)GlcNAc(b1-4)GlcNAc
# Method in brief: as §1
# [36] = biological target: Gal(b1-4)GlcNAc(b1-3)Gal(b1-4)GlcNAc(b1-3)Gal(b1-4)GlcNAc(b1-2)Man(a1-3)[Gal(b1-4)GlcNAc(b1-3)Gal(b1-4)GlcNAc(b1-3)Gal(b1-4)GlcNAc(b1-2)Man(a1-6)]Man(b1-4)GlcNAc(b1-4)[Fuc(a1-6)]GlcNAc
# Method in brief: as §1
# [37] = biological target: Gal(b1-4)GlcNAc(b1-3)Gal(b1-4)GlcNAc(b1-3)Gal(b1-4)GlcNAc(b1-2)[Gal(b1-4)GlcNAc(b1-3)Gal(b1-4)GlcNAc(b1-3)Gal(b1-4)GlcNAc(b1-6)]Man(a1-6)[Gal(b1-4)GlcNAc(b1-3)Gal(b1-4)GlcNAc(b1-3)Gal(b1-4)GlcNAc(b1-2)Man(a1-3)]Man(b1-4)GlcNAc(b1-4)[Fuc(a1-6)]GlcNAc
# Method in brief: as §1
binder,measurement,setting,value
B1,glycan array binding signal (z-score),[1],-0.216
same,glycan array binding signal (z-score),[2],-0.576
same,glycan array binding signal (z-score),[3],-0.026
same,glycan array binding signal (z-score),[4],0.547
same,glycan array binding signal (z-score),[5],0.031
same,glycan array binding signal (z-score),[6],0.245
same,glycan array binding signal (z-score),[7],-0.332
same,glycan array binding signal (z-score),[8],-0.312
same,glycan array binding signal (z-score),[9],-0.1
same,glycan array binding signal (z-score),[10],-0.315
same,glycan array binding signal (z-score),[11],0.095
same,glycan array binding signal (z-score),[12],-0.289
same,glycan array binding signal (z-score),[13],-0.5
same,glycan array binding signal (z-score),[14],-0.474
same,glycan array binding signal (z-score),[15],-0.572
same,glycan array binding signal (z-score),[16],-0.542
same,glycan array binding signal (z-score),[17],-0.142
same,glycan array binding signal (z-score),[18],-0.571
same,glycan array binding signal (z-score),[19],-0.604
same,glycan array binding signal (z-score),[20],-0.198
same,glycan array binding signal (z-score),[21],-0.624
same,glycan array binding signal (z-score),[22],-0.419
same,glycan array binding signal (z-score),[23],-0.466
same,glycan array binding signal (z-score),[24],-0.722
same,glycan array binding signal (z-score),[25],-0.205
same,glycan array binding signal (z-score),[26],-0.604
same,glycan array binding signal (z-score),[27],-0.508
same,glycan array binding signal (z-score),[28],-0.167
same,glycan array binding signal (z-score),[29],-0.211
same,glycan array binding signal (z-score),[30],0.208
same,glycan array binding signal (z-score),[31],0.066
same,glycan array binding signal (z-score),[32],0.192
same,glycan array binding signal (z-score),[33],0.305
same,glycan array binding signal (z-score),[34],-0.32
same,glycan array binding signal (z-score),[35],0.251
same,glycan array binding signal (z-score),[36],0.074
same,glycan array binding signal (z-score),[37],-0.041
